Experimental data taken from PubChem BioAssay AID686970 (National Center for Advancing Translational Sciences (NCATS), 2013).
About 6,000 (1.7%) of roughly 360,000 compounds were called active. This list was built around the results that the source calls inconclusive (neither active nor inactive); the mix of calls is not that of the screen. The call rests on the fitted dose curve; in most records, active means well fitted cell-killing curve with a large enough effect; inconclusive means small, poorly fitted or top-dose-only effect, or effect the other way; inactive means flat fitted curve, though single readings scatter. No potency is given beside an inconclusive call; the fits are too rough.

Experiment: qHTS for induction of synthetic lethality in tumor cells producing 2HG: qHTS for the HT-1080-NT fibrosarcoma cell line;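 further: NT is the 2HG producing partner of a matched IDH1 knockdown line; nearly all actives have a fitted effect of over 55% in size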;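 on activity, negative = less viability: 0% = DMSO-treated cells and -100% = media-only wells without cells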
Conditions: HT-1080-NT fibrosarcoma viability, CellTiter-Glo ATP luminescence, 48 h; activity, negative = less viability: at 46.1 µM (top of the series) unless noted
How it was run: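 A 48-hour cytotoxicity screen used HT-1080-NT cells plated 2 hours before compound delivery. ATP-based CellTiter-Glo luminescence measured viability, normalized to DMSO and no-cell controls.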
Potency means the concentration at half of the fitted maximal effect; tags describe the fitted curve by direction and shape.

| Structure (SMILES) | activity, negative = less viability | Potency |
| --- | --- | --- |
| C=CCc1ccc(OCCCCNC2CCCC2)c(OC)c1 | inactive: -11.4% | – |
| CCCCCCCCCn1c2c(c(=N)c3c1CCC3)CCC2 | – | active: 1.46 µM |
| Cc1ccc2c(CC(=O)NCc3ccco3)coc2c1C | – | active: 5.17 µM |
| O=C(NC(=O)c1ccccc1O)c1ccc(C(F)(F)F)cc1 | – | active: 13 µM |
| CC1(C)CC(=O)C2=C(C1)c1c(ccc3ccccc13)NC2c1ccc(Br)o1 (centres undefined) | – | inconclusive [cytotoxic, single point] |
| CC[n+]1c(/C=C/c2ccc(OC(C)=O)c(OC)c2)ccc2ccccc21 | inactive: -0.405% | – |
| O=C(NC(=S)NNC(=O)c1cccs1)c1ccccc1 | – | inconclusive [cytotoxic, partial curve] |
| CS(=O)(=O)Nc1ccc(C(=O)NCCSCc2c(F)cccc2Cl)cc1 | inactive: -9.57% | – |
| Cc1ccc(-c2csc(NC(=O)CSc3nc4ccccc4c(=O)n3CCCN(C)C)n2)cc1 | – | inconclusive [cytotoxic, single point] |
| OC1(c2cccc(C(F)(F)F)c2)CCN(c2ncnc3c2[nH]c2ccccc23)CC1 | – | active: 23.1 µM |
| CCCn1c(C(C)NC(C)=O)nc2ccccc21 (centres undefined) | inactive: -1.44% | – |
| C=CCn1c(=N)n(CC(=O)c2ccccc2)c2ccccc21 | inactive: -1.89% | – |
| Cc1cc(C)cc(NC(=S)N2CCN(c3ncc(C(F)(F)F)cc3Cl)CC2)c1 | inactive: 11.7% | – |
| Cc1ccc(NC(=O)c2ccccc2NS(=O)(=O)c2ccc(Cl)s2)cc1 | – | active: 20.6 µM |
| O=C(OCc1ccc(Br)cc1)c1cnc(Cl)c(Cl)c1 | – | inconclusive [cytotoxic, single point] |
| COC(=O)c1ccc(CN2CCC(CO)(Cc3ccccc3Cl)CC2)cc1 | – | inconclusive [cytotoxic, single point] |
| COc1cc(NC(=O)Nc2ccccc2)c(OC)cc1NC(=O)CN1CCCCC1 | – | inconclusive [cytotoxic, single point] |
| COc1ccc2cc(C(C)C(=O)O)ccc2c1 (centres undefined) | inconclusive: 0.322% | – |
| O=S(=O)(NCC(Nc1ccc(Cl)cc1)c1ccccc1)c1ccccc1 (centres undefined) | – | inconclusive [cytotoxic, single point] |
| O=C(OCc1ccccc1)N1CCC2CC1c1ccc(N3CCOCC3)cc12 (centres undefined) | inactive: -7.91% | – |
| COc1cc(/C=N/NC(=O)c2cc(-c3ccccc3)sc2N)cc(OC)c1OC | – | inconclusive [cytotoxic, partial curve] |
| CC(C)Cn1c(-c2cc([N+](=O)[O-])ccc2Cl)nc2c1c(=O)[nH]c(=O)n2Cc1ccccc1 | inactive: -21.5% | – |
| Cc1noc(C)c1CSCC(=O)Nc1nc(-c2ccc(F)c(F)c2)cs1 | – | inconclusive [cytotoxic, single point] |
| OCC[C@H]1C[C@@H](O)[C@H](O)[C@@]2(OCc3ccccc32)O1 | inactive: -2.34% | – |
| CCc1ccc(-c2cc(C(=O)N3N=C(C(F)F)CC3(O)C(F)F)c3ccccc3n2)cc1 (centres undefined) | – | inconclusive [cytotoxic, single point] |

| Structure (SMILES) | activity, negative = less viability | Potency |
| --- | --- | --- |
| Cc1ccc(S(=O)(=O)N(C)C)cc1NC(=S)NC(C)CCCC(C)C (centres undefined) | – | inconclusive [cytotoxic, single point] |
| CC(=O)Cc1nsc(NC(=O)c2ccc(COc3ccccc3C)o2)n1 | – | inconclusive [cytotoxic, single point] |
| COc1ccc(-c2cc3ncc(-c4ccccc4)c(N)n3n2)cc1 | – | inconclusive [cytotoxic, single point] |
| COc1ccccc1NC(=O)c1ccc(NC(=O)CSc2ncn[nH]2)cc1 | inactive: -3.11% | – |
| C[C@H](NC(=O)c1nc[nH]c1C(=O)NC(c1ccccc1)c1ccccc1)C(=O)OCc1ccccc1 | – | inconclusive [cytotoxic, partial curve] |
| CC(=O)Nc1ccc(SCC(=O)c2ccc(Br)s2)cc1 | – | active: 25.9 µM |
| CCCCn1c(N)c(C(=S)NC(=O)CC(C)(C)C)c(=O)n(C)c1=O | – | inconclusive [cytotoxic, single point] |
| Cc1cc(C)n(C(=O)Cn2nc([N+](=O)[O-])c(Br)c2C)n1 | inactive: 6.22% | – |
| CCn1nc(C)cc1C(=O)N1CCCC(N2CCN(Cc3ccc4c(c3)OCO4)CC2)C1 (centres undefined) | inactive: 1.74% | – |
| Cc1ccc(-c2nc3cccnc3o2)cc1NC(=O)COc1ccc(C(C)(C)C)cc1 | – | inconclusive [cytotoxic, single point] |
| COc1ccc(C(=O)N2CCN(c3cccc(Cl)c3)CC2)cc1 | inactive: -8.13% | – |
| CCOC(=O)C1=CCN(S(=O)(=O)c2ccccc2C)C1c1ccc(Cl)c(Cl)c1 (centres undefined) | – | inconclusive [cytotoxic, single point] |
| Cc1cccc2c1Sc1ccc(Cl)cc1CC2N1CCNCC1 (centres undefined) | – | active: 23.1 µM |
| NC(c1csc(Nc2nncc3ccccc23)n1)c1ccccc1Cl (centres undefined) | – | inconclusive [cytotoxic, single point] |
| Cc1sc(NC(=O)CN2CCOCC2)nc1-c1ccc2c(c1)CCN2S(=O)(=O)c1ccccc1 | – | inconclusive [cytotoxic, partial curve] |
| O=C(Nc1cccc(Br)c1)c1ccc(Cl)c(S(=O)(=O)N2CCOCC2)c1 | – | active: 7.08 µM |
| O=C1Nc2ccc([N+](=O)[O-])cc2OC1CCN1CCOCC1 (centres undefined) | – | inconclusive [cytotoxic, single point] |
| CCOC(=O)c1sc(NC(=O)Nc2ccccc2)cc1C | – | inconclusive [cytotoxic, single point] |
| C=CCNCCCOc1ccc(Cl)cc1Br | inactive: -13.9% | – |
| O=C(N/N=C/c1sc(N2CCCCC2)nc1-c1cccs1)c1cccnc1 | – | inconclusive [cytotoxic, single point] |
| CCOC(=O)c1oc2ccccc2c1NC(=O)c1cccc(OC)c1OC | – | inconclusive [cytotoxic, single point] |
| Cc1nn(CC(=O)N(C)C)c(C)c1S(=O)(=O)N1CCOCC1 | inactive: 1.68% [at 9.24 µM] | – |
| COc1ccc(C(=O)/C=C/Nc2ccccn2)cc1 | – | inconclusive [cytotoxic, single point] |
| CCO[C@H]1OC(C(=O)Nc2ccccc2)=C[C@@H](c2ccc(C(F)(F)F)cc2)[C@@H]1CCCO | – | inconclusive [cytotoxic, single point] |
| S=C(NCc1cccnc1)Nc1ccc(Cl)c(Cl)c1 | – | inconclusive [cytotoxic, single point] |

| Structure (SMILES) | activity, negative = less viability | Potency |
| --- | --- | --- |
| COc1ccc(Br)cc1CN(C)CC(O)COc1ccc(Br)cc1 (centres undefined) | – | active: 20.6 µM |
| COc1ccccc1NC(=O)c1c(N=Cc2c(O)ccc3ccccc23)cnn1C | – | active: 8.2 µM |
| Cc1ccc(Nc2nnc(SCC(=O)Nc3cc(C(=O)O)ccc3C)s2)c(C)c1 | – | inconclusive [rising, partial curve] |
| COc1ccc(C(C)(O)c2nc(-c3ccc(F)c(Cl)c3)cs2)cc1 (centres undefined) | – | inconclusive [cytotoxic, single point] |
| COc1ccc(Br)cc1C(=O)NC(=S)Nc1ccc(CN2CCOCC2)cc1 | – | inconclusive [cytotoxic, single point] |
| C[C@@H]1CN([C@H](C)CO)C(=O)Cc2cc(NS(=O)(=O)c3ccc(F)cc3)ccc2O[C@H]1CN(C)Cc1ccc(C(=O)O)cc1 | inactive: 1.19% | – |
| O=C1NC(=O)C(=Cc2ccccc2[N+](=O)[O-])S1 | – | active: 20.6 µM |
| C/C(=N\Nc1cccc(Cl)c1)c1ccncc1 | – | inconclusive [cytotoxic, single point] |
| Cc1ccccc1-c1nnc(-c2ccc(Cl)cc2)o1 | inactive: 2.28% | – |
| CCOC(=O)CCc1ccc(NC(=O)/C=C/c2ccc([N+](=O)[O-])o2)cc1 | – | active: 8.2 µM |
| N#C/C(=C/c1cccc([N+](=O)[O-])c1)C(=O)Nc1ccccc1O | inactive: -2.24% | – |
| COc1ccc(C(=O)C(C)[n+]2ccc(C)c3ccccc32)cc1[N+](=O)[O-] (centres undefined) | inactive: -9.18% | – |
| CCOc1ccc(S(=O)(=O)NCCC(=O)NC2CCN(Cc3ccccc3)CC2)cc1 | inactive: 2.3% | – |
| O=[N+]([O-])c1ccc(O)c(/C=N/Nc2nc3ccccc3[nH]2)c1 | – | inconclusive [cytotoxic, full curve] |
| Cc1cc(C)nc(-n2nc(C)cc2NC(=O)CN2CCCC(C)C2)n1 (centres undefined) | – | active: 1.26 µM |
| COc1ccc(CCN2C(=O)C3C4C=CC(C3C2=O)C2C(=O)N(CCc3ccc(OC)c(OC)c3)C(=O)C42)cc1OC (centres undefined) | inactive: -18.1% | – |
| COCCNCC(=O)Nc1ccc(C)c(S(=O)(=O)N2CCCCC2)c1 | inactive: -4.79% | – |
| O=C(CSc1nnc(-c2ccc(C(F)(F)F)cn2)o1)Nc1cccc(Cl)c1 | – | inconclusive [cytotoxic, single point] |
| O=C(Nc1nc2ccc(C(=O)N3CCCCC3)cc2s1)C1CCCCC1 | – | inconclusive [cytotoxic, partial curve, poor fit] |
| O=C(Nc1ccc([N+](=O)[O-])cc1)c1cc(-c2ccccn2)nc2c(Cl)cccc12 | – | inconclusive [cytotoxic, single point] |
| CCc1ccccc1NC(=O)c1cc(=O)c2ccccc2o1 | inactive: 3.22% | – |
| C[C@]12C=CC(=O)C=C1CC[C@@H]1[C@@H]2[C@@H](O)C[C@@]2(C)[C@H]1CC[C@]2(O)C(=O)COC(=O)CCC(=O)NCCc1ccc(O)cc1 | – | inconclusive [rising, full curve] |
| CC(O)(c1cccc(F)c1)c1nc(-c2ccncc2)cs1 (centres undefined) | inconclusive: -34.1% [cytotoxic] | – |
| COc1ccc(C2CC(c3c(O)cc(C)oc3=O)=NCCS2)c(OC)c1 (centres undefined) | – | active: 1.3 µM |
